Measurements as given in ChEMBL document CHEMBL4888484, “Replenishing the malaria drug discovery pipeline: Screening and hit evaluation of the MMV Hit Generation Library 1 (HGL1) against asexual blood stage Plasmodium falciparum ,using a nano luciferase reporter read-out” (2022).
The whole screen tested about 150,000 compounds, of which about 540 (0.36%) showed an effect of 50% or more. The list shows a part of the results.

These compounds were tested on Plasmodium falciparum (assay: Primary screen in NF54 nanoGlo assay, in single point, at 2uM, 72h; a lower Z score goes with more inhibition). Conditions: timepoint 72 hour.
Assay type: functional, Erythrocyte
`COc1cccc(C2(C(=O)N3CC[C@](C)(C(=O)O)C3)CCCC2)c1` was tested, and the “% Inhibition” value was -8% and the Z score was 1.06. In the case of `CCCC1(CCC)C(=N)NC(=O)NC1=O`, the “% Inhibition” value is reported as -4% and the Z score is reported as 0.69. With `CC(C)c1ccc(N(C)C(=O)c2ccc(C(=O)O)o2)cc1` the “% Inhibition” value was -3% and the Z score was 0.67. `COc1ccc(-n2c(C)cc(C(=O)N3CCO[C@@H](CC(=O)O)C3)c2C)cc1` was tested, and the “% Inhibition” value was 2% and the Z score was -0.31. In the case of `CN(Cc1ncc[nH]1)C(=O)c1ccc2c(c1)n(CC1CC1)c(=O)n2C1CCCCC1`, the “% Inhibition” value is reported as -6% and the Z score is reported as 0.72. `Cc1nn(C)cc1Cn1ccnc1-c1nccn1C(C)C` was tested, and the “% Inhibition” value was -7% and the Z score was 1.41. With `O=C(c1ccccc1)c1ccc(N2C(=O)c3ccc(C(c4ccc5c(c4)C(=O)N(c4ccc(C(=O)c6ccccc6)cc4)C5=O)(C(F)(F)F)C(F)(F)F)cc3C2=O)cc1` the “% Inhibition” value was 2% and the Z score was -0.33. For `CCCn1c(C(=O)N2CCN(CC)CC2)cc2cc(NC(=O)c3cccc(F)c3)ccc21`, the “% Inhibition” value was -14% and the Z score was 1.76. For `CCc1nc(C)c(C(=O)N[C@H]2CCN(C)C2=O)s1`, the “% Inhibition” value was 10% and the Z score was -1.31. `COc1cc(OC)cc(C(=O)N2CCCN(c3nc4c(s3)c(C)nn4-c3ccc(C)cc3)CC2)c1` was tested, and the “% Inhibition” value was -5% and the Z score was 0.78. For `CCCO/C(=N/C(=O)c1ccc(C(F)(F)F)cc1)NCc1ccc2c(c1)OCO2`, the “% Inhibition” value was -5% and the Z score was 0.53. With `Cn1cnc2cc(CNC(=O)c3cccc(Cl)c3)ccc21` the “% Inhibition” value was -20% and the Z score was 1.92. With `COc1cc2ccc1OCC(=O)N[C@@H](C)C(=O)N(C)CCCCN(C(=O)[C@@H]1CCCO1)CCCNC2=O` the “% Inhibition” value was -12% and the Z score was 1.48. With `CC[C@@H](C(=O)N1CCN=C1N1CCN(c2ccccc2F)CC1)c1ccccc1` the “% Inhibition” value was -9% and the Z score was 1.57. With `Cc1n[nH]cc1CNC1(CNC(=O)OC(C)(C)C)CCCCC1C` (centres undefined) the “% Inhibition” value was -9% and the Z score was 1.24. With `CN(Cc1ccccc1)C(=O)c1cc2sccc2n1Cc1cccc(Cl)c1` the “% Inhibition” value was -12% and the Z score was 1.2. `CC(=O)Nc1ccc(CNC2(Cc3cc(CN4CCCCC4)on3)COC2)cc1` was tested, and the “% Inhibition” value was 4% and the Z score was -0.7. For `O=C(CCc1conc1-c1ccc(F)cc1)NCc1ccccc1Br`, the “% Inhibition” value was -8% and the Z score was 1.03. For `Cc1cccc(N(CCC(N)=O)C(=O)c2[nH]c3c(c2C)C(=O)CCC3)c1`, the “% Inhibition” value was -12% and the Z score was 1.65. For `O=C([C@@H]1CCCO1)N1CCc2cc(F)cnc21`, the “% Inhibition” value was 9% and the Z score was -1.13. `CCO[C@H]1CN(C)C[C@@H]1NC(=O)c1ccc(-c2ccc3c(c2)OCC3)cc1` was tested, and the “% Inhibition” value was -8% and the Z score was 1.57. `CC1C(C(F)(F)F)OCCN1C(=O)Nc1ccn(CCN2CCOCC2)n1` (centres undefined) was tested, and the “% Inhibition” value was -10% and the Z score was 1.68. For `CCCCN(CC)C(=O)c1cc(NC(=O)c2ccc(F)cc2)cnc1N1CCNCC1`, the “% Inhibition” value was 3% and the Z score was -0.42. For `CC(NC(=O)N1Cc2cccnc2N2CCC[C@@H]2C1)c1ccnn1C` (some centres undefined), the “% Inhibition” value was -3% and the Z score was 0.52. For `CCCNS(=O)(=O)N1CCC(n2cc(Br)cn2)CC1`, the “% Inhibition” value was -5% and the Z score was 0.97. `COc1ccc(-n2cccn2)c(-c2cn(C[C@H]3CNCCO3)nn2)c1` was tested, and the “% Inhibition” value was 0% and the Z score was -0.06. For `O=C(NCc1ccc2c(c1)OCO2)c1ccncc1`, the “% Inhibition” value was -10% and the Z score was 1.59. With `CC(C)CN(CC(C)(C)C)C(=O)C(=O)Nc1cccnc1` the “% Inhibition” value was -14% and the Z score was 1.59. In the case of `FC(F)(F)C1(C(F)(F)F)CNCCO1`, the “% Inhibition” value is reported as -3% and the Z score is reported as 0.58. `CN(CC[C@H]1CN(C(=O)c2cccs2)CC[C@H]1CC(=O)O)c1ccccc1` was tested, and the “% Inhibition” value was 17% and the Z score was -2. In the case of `O=C(O)c1cc(NS(=O)(=O)c2ccc(F)c(F)c2)ccc1N1CCC(N2CCCCC2)CC1`, the “% Inhibition” value is reported as 1% and the Z score is reported as -0.14. With `Cc1cc(CNC(=O)C(C)(C)C)c(C)o1` the “% Inhibition” value was 6% and the Z score was -0.86. For `C[C@@H](CNC(=O)C(=O)Nc1cccc(C(C)(C)O)c1)N(C)C1CC1`, the “% Inhibition” value was -7% and the Z score was 1.3. In the case of `COCc1nnc2c3ccc(Cl)cc3nc(N3CCN(C(=O)c4ccccc4OC)CC3)n12`, the “% Inhibition” value is reported as -5% and the Z score is reported as 1.06. In the case of `Cc1nc2c(s1)[C@@H](NCc1nnc3n1CCCC3)CCC2`, the “% Inhibition” value is reported as 7% and the Z score is reported as -1.08. In the case of `COc1cnc(NS(=O)(=O)c2ccc(Cl)s2)nc1`, the “% Inhibition” value is reported as -15% and the Z score is reported as 1.47. `COCCn1nc2n(c1=O)CCC1(CC2)CCN(C(=O)Cc2cccc(OC)c2)CC1` was tested, and the “% Inhibition” value was 2% and the Z score was -0.24. In the case of `O=C(Nc1nnc(COc2ccccc2)o1)c1ccc2nsnc2c1`, the “% Inhibition” value is reported as 10% and the Z score is reported as -1.42. For `Cc1ccc(CN(C)C(=O)[C@H](N)CC(C)C)o1`, the “% Inhibition” value was -8% and the Z score was 1.04. In the case of `Cc1csc(CNC(=O)N2CC[C@H](C3CCOCC3)C2)c1`, the “% Inhibition” value is reported as -11% and the Z score is reported as 1.68. For `Cc1ccc(S(=O)(=O)N2CCc3nc(NC(=O)c4ccc(F)cc4)sc3C2)cc1`, the “% Inhibition” value was 22% and the Z score was -2.07. In the case of `Cn1c(C2CCN(C(=O)Nc3ccc(Br)cc3)CC2)cc(=O)n2nccc12`, the “% Inhibition” value is reported as -1% and the Z score is reported as 0.12. For `O=C(c1ccc2ccccc2n1)N1CCCC[C@H]1c1nc(C2CC2)no1`, the “% Inhibition” value was -16% and the Z score was 1.69. `N#Cc1ccc(CN2C[C@H]3CC[C@@H](C2)N(Cc2cscn2)C3=O)cc1` was tested, and the “% Inhibition” value was -15% and the Z score was 2.08. With `CC(NC(=O)CN1c2ccccc2CCC1C)c1ccco1` (centres undefined) the “% Inhibition” value was 0% and the Z score was 0.01. For `COc1cc(C)ccc1Oc1nc(C)nc(N2CCC[C@H](C)C2)c1N`, the “% Inhibition” value was 2% and the Z score was -0.37. With `O=C(c1ccc(C#CCC2CCCC2)nc1)N1CCCCC1` the “% Inhibition” value was -7% and the Z score was 1.34. For `CC(C)c1noc(CCc2nc(-c3ccccc3)no2)n1`, the “% Inhibition” value was -2% and the Z score was 0.27. `O=C(c1cn2c(n1)CCCC2)N1CCc2ccc(Cl)cc2C1` was tested, and the “% Inhibition” value was -14% and the Z score was 1.94. In the case of `CCCc1cc(C(=O)N[C@@H](CC)c2nc(C)no2)[nH]n1`, the “% Inhibition” value is reported as -12% and the Z score is reported as 1.85. `Cn1c(C2CCN(S(C)(=O)=O)CC2)nn(CC(=O)Nc2ccccc2)c1=O` was tested, and the “% Inhibition” value was -9% and the Z score was 1.36. With `CC[C@@H](CNC(=O)c1ccc(-n2c(=O)n(C)c(=O)n2C)cc1)c1ccccc1` the “% Inhibition” value was -16% and the Z score was 2.16. For `O=S(=O)(Cc1ccccc1)NCCC1CCCCCC1`, the “% Inhibition” value was -6% and the Z score was 0.91. For `CC(=O)N1CCCC[C@H]1C1=CCCN(Cc2cc(F)ccc2C)C1`, the “% Inhibition” value was -11% and the Z score was 1.77. `CCc1c(C)noc1NC(=O)Cc1cc(C)no1` was tested, and the “% Inhibition” value was -3% and the Z score was 0.59. For `O=C(c1coc(COc2cccc(F)c2)n1)N1C[C@H]2CC[C@H]1C2`, the “% Inhibition” value was 2% and the Z score was -0.35. `Cc1nc(CN[C@@H](C)c2nc(C3CCCCC3)no2)oc1C` was tested, and the “% Inhibition” value was -7% and the Z score was 0.94. With `Cc1nc2c(N3CCN(Cc4ccoc4)[C@@H](CCO)C3)ncnc2o1` the “% Inhibition” value was -20% and the Z score was 1.93. `CCNC(=O)c1ccc(Nc2c(Oc3cccc(C)c3)cnn(-c3ccc(F)cc3)c2=O)cc1` was tested, and the “% Inhibition” value was -14% and the Z score was 1.4. With `CN(Cc1ccccc1)C(=O)CN1C(=O)COc2ccc(S(=O)(=O)N3CCOCC3)cc21` the “% Inhibition” value was -2% and the Z score was 0.41. With `Cc1nc(C)c(-c2nccn2Cc2ccc(S(N)(=O)=O)cc2)s1` the “% Inhibition” value was 5% and the Z score was -0.7. In the case of `N#CCCN(CC1CC1)C(=O)c1cnc(-c2ccc(F)c(F)c2)s1`, the “% Inhibition” value is reported as -6% and the Z score is reported as 0.65. For `CC(C)(NC(=O)C(F)(F)F)C(=O)N1CC(O)(C2CC2)C1`, the “% Inhibition” value was -10% and the Z score was 1.9. In the case of `CCC(C)c1csc(NC(=O)N(C)CC(C)C(=O)NC)n1` (centres undefined), the “% Inhibition” value is reported as -17% and the Z score is reported as 1.72. For `COCCN(CCC(=O)N1CCCC1)C(=O)c1cc(-c2cc(C)ccc2C)on1`, the “% Inhibition” value was -19% and the Z score was 2.99. With `CCc1noc(C2(NCc3cc(Cl)sc3Cl)CCOCC2)n1` the “% Inhibition” value was -6% and the Z score was 0.82. With `O=C(C1=COCCC1)N1CCCC[C@@H]1CCc1ccccc1` the “% Inhibition” value was -10% and the Z score was 1.44. In the case of `COc1ccc(S(=O)(=O)N2CC(=O)N3CCc4ccccc4[C@@H]3C2)cc1C`, the “% Inhibition” value is reported as 1% and the Z score is reported as -0.1. For `CN(Cc1nn(C)c2cccc(Cl)c12)C[C@H]1CC(=O)N(C2CCCC2)C1`, the “% Inhibition” value was -1% and the Z score was 0.27. With `CCC[C@@H](C(=O)NCc1cccnc1)n1c(Cc2ccc(Cl)cc2Cl)nc2ccccc21` the “% Inhibition” value was 2% and the Z score was -0.17. For `Cc1cc(C(=O)Nc2ccc(S(=O)(=O)N3CCCC3)cc2)no1`, the “% Inhibition” value was -13% and the Z score was 1.11. `COC[C@@H](c1ccccn1)N(C)C(=O)c1c(C)nc2ccc(Cl)cn12` was tested, and the “% Inhibition” value was 0% and the Z score was 0.01. `O=C(CCS(=O)(=O)Cc1ccc(F)cc1Cl)Nc1ccc(F)cc1` was tested, and the “% Inhibition” value was -8% and the Z score was 1.51. With `c1ccc(CCOCc2cccc(NCc3cc[nH]n3)c2)cc1` the “% Inhibition” value was -5% and the Z score was 0.61. For `CC1(C)COCCN1CCNC(=O)N1CC[C@H](CO)C1`, the “% Inhibition” value was 32% and the Z score was -3.57. With `CCc1noc([C@@H]2CCCN2C(=O)Cc2ccc3c(c2)OCO3)n1` the “% Inhibition” value was -8% and the Z score was 1.22. For `CCC(C)(C)C(=O)N1C[C@H](c2nc(C)no2)C2(CCOCC2)C1`, the “% Inhibition” value was -7% and the Z score was 1.23. With `CCN(CC1CCN(c2ccccn2)CC1)C(=O)c1cnccn1` the “% Inhibition” value was 0% and the Z score was -0.04. In the case of `Cc1c(S(=O)(=O)c2ccc(F)cc2)c(N)n(Cc2ccccn2)c1C`, the “% Inhibition” value is reported as -1% and the Z score is reported as 0.12. For `O=C(O)c1cc(N2C[C@@H]3[C@H](C2)[C@H]2CC[C@@H]3O2)nc2ccccc12`, the “% Inhibition” value was -4% and the Z score was 0.87. `CCCCS(=O)(=O)N1CC[C@H](CNc2nccc(C)n2)C1` was tested, and the “% Inhibition” value was -10% and the Z score was 1.93. `O=C(Nc1nccs1)c1ccc2[nH]c3c(c2c1)CCCC3` was tested, and the “% Inhibition” value was -11% and the Z score was 1.54.
